PMC12432536, “2‐Oxoglutarate Analog‐Based Biomolecular Tools for Exploring Structure–Activity Relationships in Nonheme Iron Enzymes” (Chembiochem, 2025)

How the values were obtained:
W258H PHD2 = target: T1, W258H PHD2 (Homo sapiens, UniProt Q9GZT9, W258H); test: Hydroxylation assay of PHD2 mutant W258H in the presence of analogs; assay type: biochemical; settings: 1 mM analog
T1 construct: WT-PHD2181-426 and mutants were expressed and purified as previously described; His6 (N); made in house; host or cells: E. coli BL21(DE3), pET-28a(+)
Excerpt: (§1) We were encouraged by our computational studies to experimentally validate the predicted binding modes and interactions of the analogs using mutagenesis studies. We constructed five mutants (I256A, W258F, W258H, M299A, and Y310T) and monitored their activity using our hydroxylation assay in the presence of 1a and 1c to verify the importance of specific amino acids contributing to analog binding and inhibition (Figure 4D). The Y310T mutant was constructed to probe the potential hydrogen bond between the o‐methoxy group of 1c and Y310. However, hydroxylation activity was not observed with this mutant, likely due to perturbing interactions with the substrate, making further evaluation not possible.^[ [54] ^] The mutant was constructed to probe potential hydrophobic interactions with the methoxy‐substituted aryl rings. […] The W258F mutant was constructed to probe a potential hydrogen bond with the p‐methoxy group of both analogs, as the phenylalanine substitution should remove the hydrogen bond donating ability of the 258 residue. […] The W258H mutant was also constructed to probe the potential hydrogen bond with p‐methoxy group of both analogs, however, the histidine substitution should maintain the hydrogen bond donating ability of the 258 residue. […]
(§2) Activity was monitored in the presence […]
(§3) All spectra were recorded in […]

HIF‐1α = test: Immunoblot monitoring of HIF-1α levels in HEK-293T cells; assay type: cell-based; settings: 18 hours; for dose at which noticeable HIF‐1α accumulation is seen: highest dose 2000 μM
M299A PHD2 = target: T2, M299A PHD2 (Homo sapiens, UniProt Q9GZT9, M299A); test: Hydroxylation assay of PHD2 mutant M299A in the presence of analogs; assay type: biochemical; settings: 1 mM analog
T2 construct: WT-PHD2181-426 and mutants were expressed and purified as previously described; His6 (N); made in house; host or cells: E. coli BL21(DE3), pET-28a(+)
Excerpt: as §1, §2, §3

PHD2 [1] = target: T3, PHD2 (Homo sapiens, UniProt Q9GZT9); test: 2OG-dependent steady-state kinetics of PHD2 inhibition; assay type: biochemical; design: WT-PHD2181-426 was incorporated into pET-28a(+) expression vector; His6 (N); made in house; host or cells: E. coli BL21(DE3), pET-28a(+); settings: for kcat of PHD2: ± SD; for Ki: from Michaelis–Menten / Lineweaver–Burk plots, varied 2OG, read-out: inhibition constant (Ki); for mechanism of inhibition: versus 2OG
Excerpt: Next, we wanted to confirm that the analogs were in direct competition with 2OG. […] Michaelis–Menten plots and Lineweaver–Burk plots were used to confirm the mechanism of inhibition. […] Lineweaver–Burk plots further confirmed this observation as the trendlines intersected at the ordinate (Figure 3B and S5B, Supporting Information).
Briefly, the inhibition screening assay
Activity was monitored in the presence
which were dependent on the analogues’ potency.
MALDI-TOF mass spectrometry was used to
and 0.1% trifluoroacetic acid.
Colorimetric Assay for 2OG Detection
The solutions were then diluted 2-
as §3

W258F PHD2 = target: T4, W258F PHD2 (Homo sapiens, UniProt Q9GZT9, W258F); test: Hydroxylation assay of PHD2 mutant W258F in the presence of analogs; assay type: biochemical; settings: 1 mM analog
T4 construct: WT-PHD2181-426 and mutants were expressed and purified as previously described; His6 (N); made in house; host or cells: E. coli BL21(DE3), pET-28a(+)
Excerpt: as §1, §2, §3

PHD2 [2] = target: T3, PHD2; test: PHD2 hydroxylation activity assay (MALDI-TOF, HIF-1α peptide mimic): inhibition screen and dose response; settings: for inhibition of PHD2 activity in activity screen: 1 mM 2OG analogue, 1 mM 2OG, 2 µM PHD2, hydroxylation assay
I256A PHD2 = target: T5, I256A PHD2 (Homo sapiens, UniProt Q9GZT9, I256A); test: Hydroxylation assay of PHD2 mutant I256A in the presence of analogs; assay type: biochemical; settings: 1 mM analog
T5 construct: WT-PHD2181-426 and mutants were expressed and purified as previously described; His6 (N); made in house; host or cells: E. coli BL21(DE3), pET-28a(+)
Excerpt: as §1, §2, §3

COc1ccc(/C=C/C(=O)C(=O)O)cc1 [1a]
inhibition of W258H PHD2 relative to WT and W258F (W258H PHD2): some inhibition | HIF‐1α accumulation (HIF‐1α; increasing doses): not detected | inhibition of M299A PHD2 relative to WT (M299A PHD2): decreased | kcat of PHD2 (PHD2 [1]; 200 µM analog): 0.0164 ± 0.0002 s⁻¹ | kcat of PHD2 (PHD2 [1]; 400 µM analog): 0.0157 ± 0.0009 s⁻¹ | kcat of PHD2 (PHD2 [1]; 600 µM analog): 0.0160 ± 0.0005 s⁻¹ | Ki (PHD2 [1]): 140 ± 10 µM | mechanism of inhibition (PHD2 [1]): competitive against 2OG | inhibition of W258F PHD2 relative to WT (W258F PHD2): significantly diminished | IC50 (PHD2 [2]): 292 ± 65 µM | inhibition of PHD2 activity in activity screen (PHD2 [2]): increased inhibition compared to analogs 1b and 1d | inhibition of I256A PHD2 relative to WT (I256A PHD2): mostly maintained

COc1ccc(/C=C/C(=O)C(=O)O)cc1OC [1b]
IC50 (PHD2 [2]): 1180 ± 270 µM

COc1cc(OC)c(/C=C/C(=O)C(=O)O)c(OC)c1 [1c]
inhibition of W258H PHD2 relative to WT and W258F (W258H PHD2): some inhibition | dose at which noticeable HIF‐1α accumulation is seen (HIF‐1α): 2000 µM | inhibition of M299A PHD2 relative to WT (M299A PHD2): decreased | kcat of PHD2 (PHD2 [1]; 100 µM analog): 0.0161 ± 0.0007 s⁻¹ | kcat of PHD2 (PHD2 [1]; 200 µM analog): 0.0161 ± 0.0009 s⁻¹ | kcat of PHD2 (PHD2 [1]; 300 µM analog): 0.016 ± 0.001 s⁻¹ | Ki (PHD2 [1]): 70 ± 7 µM | mechanism of inhibition (PHD2 [1]): competitive against 2OG | inhibition of W258F PHD2 relative to WT (W258F PHD2): significantly diminished | IC50 (PHD2 [2]): 118 ± 35 µM | inhibition of PHD2 activity in activity screen (PHD2 [2]): increased inhibition compared to analogs 1b and 1d | inhibition of I256A PHD2 relative to WT (I256A PHD2): mostly maintained

COC(=O)CNC(=O)C(=O)OC [DMOG, dimethyloxalylglycine, reference compound]
dose at which noticeable HIF‐1α accumulation is seen (HIF‐1α): 500 µM

O=C(O)CNC(=O)C(=O)O [NOG, N‐oxalylglycine, reference compound]
inhibition of PHD2 activity in activity screen (PHD2 [2]): complete inhibition
